The results in this text go back to the RNAGym collection of RNA variant scans (doi:10.7554/elife.90254).

Read counts are not given, so values of variants with three or more changes are uncertain.

The labels stand for the following.
B1: LINE1-mini (parent)
chain: GGCAGAGCUCAACACAGCGUGGCAAAGUGGCUGUGGCUAGACUGCC

Variants of B1 are the subject of this series. Briefly: self-cleavage, relative activity (ratio to wild type); higher = more cleavage; in vitro, sequencing; the parent is a self-cleaving ribozyme.
With G2C C8U A12G A24U, the self-cleavage is 0.06.

On to G2C A24U A39U, for which the self-cleavage worked out at 0.22.

G2C C8U G33U G40C: the self-cleavage worked out at 0.06.

Turning to G2C C8A A12U G33U, the self-cleavage stood at 0.16.

Regarding G2C C23U G30U C46A, the self-cleavage came out at 0.05.

In the case of G2C A24C A25C, the self-cleavage turned out to be 0.03.

Turning to G2C A12U C15U U32G, the self-cleavage came out at 0.02.

G2C A12U G27C: the self-cleavage is 0.02.

With G2C A16G A25C, the self-cleavage is 0.03.

G2C A11G A14G G33C: the self-cleavage came out at 0.

Turning to G2C A11G A12U G17U G29C, the self-cleavage is 0.01.

Consider G2C A4U G17C U20G U28G, for which the self-cleavage was 0.02.

Take G2C C13G C31G G36C: the self-cleavage is 0.06.

Turning to G2C C13A A26G G27A U43A, the self-cleavage came out at 0.03.

Regarding G2C A11C G40A, the self-cleavage was determined as 0.01.

G2C A4C C13A C23G: the self-cleavage worked out at 0.05.

As to G2C C10G G44C C46A, the self-cleavage amounted to 0.

Take G2C C8A A24U A39U C46G: the self-cleavage came to 0.12.

Regarding G2C C10A C15A G33A U34A, the self-cleavage stood at 0.03.

For G2C A6G C8G A16U U28A U38A, the self-cleavage came out at 0.15.

G2C A12U C15A C31U: the self-cleavage worked out at 0.

Turning to G2C A4G G27U, the self-cleavage came out at 0.01.

Consider G2C A6U U28C U34G, for which the self-cleavage came out at 0.05.

G2C A25U U28C U38G C45G: the self-cleavage was 0.

For G2C A4U G19A A24G, the self-cleavage was 0.09.

For the variant G2C A11C G35C, the self-cleavage is 0.02.

Turning to G2C A6U G7A C8A U34C, the self-cleavage was found to be 0.8.

As for G2C C13A C31A, the self-cleavage amounted to 0.1.

Take G2C C15A A24C G29U: the self-cleavage turned out to be 0.03.

With G2C C10A C18A G19C G36U, the self-cleavage stood at 0.01.

For the variant G2C C23U G33U, the self-cleavage is 0.06.

As to G2C C10G C23A, the self-cleavage came to 0.01.

On to G2C A11C A24U C42A, for which the self-cleavage was 0.01.

In the case of G2C A11C A16C G17A G22A C37A, the self-cleavage stood at 0.01.

Consider G2C A4G C8G A41U, for which the self-cleavage stood at 0.13.

G2C C13G G27U C46U: the self-cleavage came out at 0.02.

Take G2C A4U A16C A25C A26G C37A: the self-cleavage was determined as 0.01.

For the variant G2C A16C G19U, the self-cleavage worked out at 0.3.

G2C A4G A14G U34G G44U: the self-cleavage was found to be 0.03.

G2C C8U A24U G33U: the self-cleavage was determined as 0.03.

On to G2C A11U G22A, for which the self-cleavage was 0.02.

As for G2C A6C C18U G22U, the self-cleavage amounted to 0.91.

G2C A6G C10G A41G G44C: the self-cleavage was 0.01.

As to G2C C18G U34A, the self-cleavage was found to be 0.07.

For G2C C3A C15G G22U C37A C46A, the self-cleavage was 0.01.

Regarding G2C C15U C42A, the self-cleavage was 0.06.

Consider G2C C3A A4G A6G U9A G22A, for which the self-cleavage came to 0.

G2C C10A G22U G35U C42A: the self-cleavage turned out to be 0.

With G2C C8G G33A, the self-cleavage is 0.06.

For G2C C31A A39U, the self-cleavage is 0.08.

For G2C C13G A25G C37U C46U, the self-cleavage came out at 0.02.

With G2C C3U A12G, the self-cleavage is 0.02.

Turning to G2C A12U G29U, the self-cleavage amounted to 0.3.

On to G2C C3A A14U G40U, for which the self-cleavage is 0.04.

G2C A11U A16U U32A: the self-cleavage was found to be 0.01.

As for G2C C3A A4G C8G U9C G19A G30C G44A, the self-cleavage was found to be 0.01.

Take G2C A4C C23A G44C C46U: the self-cleavage was determined as 0.21.

For the variant G2C C13A G17U G22A G30U, the self-cleavage turned out to be 0.1.

Consider G2C C10A A39C, for which the self-cleavage is 0.02.

Regarding G2C A16U G40U A41U, the self-cleavage is 0.13.

In the case of G2C A6G C10U A39U C42U, the self-cleavage was determined as 0.04.

G2C G5A A6G A24U U28A: the self-cleavage is 0.03.

As to G2C A4C A11G G19U U43C, the self-cleavage came to 0.01.

As to G2C A4U C31U, the self-cleavage stood at 0.03.

Consider G2C A11U G19U A41C, for which the self-cleavage is 0.

For G2C C8A G22A C23A C45G, the self-cleavage was 0.22.

With G2C A24U G30U, the self-cleavage is 0.23.

As for G2C C3U A6U G21A C23G C45G, the self-cleavage was 0.42.

Turning to G2C C13A G27C G33C U34C, the self-cleavage came to 0.05.

In the case of G2C A24C G33U, the self-cleavage is 0.12.

For G2C A24C G33A, the self-cleavage stood at 0.08.

On to G2C A11G C13G G44U, for which the self-cleavage amounted to 0.03.

For G2C C23U C31A, the self-cleavage came to 0.

As for G2C A12U C45A, the self-cleavage was 0.06.

Take G2C C10U A24G: the self-cleavage is 0.05.

For the variant G2C A12G G21C C31G, the self-cleavage came out at 0.05.

G2C A6C A25G U43A C46A: the self-cleavage was found to be 0.01.

Regarding G2C A6U U9G G22U U34C C46G, the self-cleavage was found to be 0.13.

On to G2C A12U A14U, for which the self-cleavage was 0.09.

Turning to G2C C3A C42U U43A, the self-cleavage was determined as 0.05.

Consider G2C A16C G36C, for which the self-cleavage was determined as 0.09.

G2C C10A G17C U20A C23U G30U: the self-cleavage was 0.

With G2C A6U U38G C46A, the self-cleavage turned out to be 0.1.

Turning to G2C A14C A16U G22U G27A, the self-cleavage amounted to 0.38.

G2C A16U G17U C18A G29U G30A: the self-cleavage turned out to be 0.01.

Regarding G2C C10G G30A C46U, the self-cleavage came to 0.02.

As for G2C A6C G33U, the self-cleavage turned out to be 0.01.

As for G2C A6G C15A G19A, the self-cleavage stood at 0.02.

For the variant G2C G5A G27A C31U A39C G40A C45A, the self-cleavage was 0.01.

G2C A4G A14G U34C: the self-cleavage stood at 0.09.

Take G2C C3G C15A: the self-cleavage stood at 0.05.

For the variant G2C C3A G5U G7C G19C C23A G29C C31A G33A, the self-cleavage is 0.12.

In the case of G2C C3U A4G C13G G17A C45G, the self-cleavage came to 0.03.

As for G2C A6C G29A U34C, the self-cleavage came out at 0.02.

As for G2C A6U C13G G40A, the self-cleavage came to 0.08.

Consider G2C A6U U28G U34C C37U A41C, for which the self-cleavage was 0.03.

With G2C A4C A25C, the self-cleavage is 0.02.

With G2C A12G C31A U34G C42U, the self-cleavage stood at 0.

For the variant G2C C13U G36A A41G C42A U43C G44U C45G, the self-cleavage is 0.02.

For G2C C13A G22U, the self-cleavage was 0.01.

Regarding G2C C13G G22C G30U U38G, the self-cleavage was 0.03.

For the variant G2C A11U A26U, the self-cleavage was 0.02.

Take G2C A12G U20A: the self-cleavage was 0.02.

With G2C A6G C31U, the self-cleavage stood at 0.06.

As for G2C C8G C31A G35U G40U U43G, the self-cleavage stood at 0.01.

As to G2C C15G U28C, the self-cleavage came to 0.

For the variant G2C C13U G17A C18A G35C, the self-cleavage was 0.33.

With G2C C15G A25G U34A, the self-cleavage was 0.01.

In the case of G2C C10A A12C A39U G40C, the self-cleavage came out at 0.01.

With G2C A6G A11G C13G G27C G29C G44C, the self-cleavage came to 0.01.

For G2C A4U C10U, the self-cleavage is 0.05.

In the case of G2C C18U G30A G44U C46G, the self-cleavage worked out at 0.24.

Turning to G2C C8G G22A C23A C37A G44C, the self-cleavage was determined as 0.

G2C A12G C23U C37A U43A: the self-cleavage is 0.1.

For the variant G2C C3G C18G U20A, the self-cleavage is 0.02.

As to G2C C13A G30U, the self-cleavage turned out to be 0.03.

For the variant G2C C15A C42U, the self-cleavage turned out to be 0.06.

In the case of G2C C8U C23A A24G G35A A39G, the self-cleavage stood at 0.02.

Consider G2C A4G G21U A26U, for which the self-cleavage was 0.03.

In the case of G2C A11U C18A A24C, the self-cleavage came to 0.

Turning to G2C C3G G5U A6C C13A G27A, the self-cleavage amounted to 0.02.

Consider G2C A6G A12G G27A G40U, for which the self-cleavage worked out at 0.03.

For the variant G2C A6U A12C G22A G40A, the self-cleavage worked out at 0.01.

On to G2C C10A G27U C42G, for which the self-cleavage amounted to 0.05.

With G2C A16U C23A U28C U34C A39C G44U, the self-cleavage is 0.01.

Take G2C G5A C8A C18A A25C: the self-cleavage worked out at 0.09.

On to G2C A14G G27A U38G A39C G44U, for which the self-cleavage came to 0.07.

With G2C A25C G29A G35U, the self-cleavage amounted to 0.02.

As to G2C C8G U9C A14U A25U G27U G36C, the self-cleavage came to 0.01.

As for G2C C8G A11C, the self-cleavage was found to be 0.05.

Take G2C A26C G36A: the self-cleavage was 0.08.

Consider G2C C15U C23U U32G, for which the self-cleavage came to 0.11.

For the variant G2C A6G C37U, the self-cleavage is 0.04.

On to G2C A6G U20A A26U G36U C45G, for which the self-cleavage was 0.01.

Take G2C C18U U32C: the self-cleavage was determined as 0.01.

As for G2C C3U G19C U32A, the self-cleavage was determined as 0.07.

In the case of G2C A4U G5U G27A A41C, the self-cleavage is 0.1.

Take G2C A4G C13U A41U: the self-cleavage is 0.02.

As to G2C C15G U32A, the self-cleavage is 0.02.

Consider G2C A14G G22A, for which the self-cleavage came out at 0.05.

On to G2C A14U G22C G35C A41G C45G, for which the self-cleavage is 0.01.

Consider G2C C10U U32G, for which the self-cleavage was 0.02.

On to G2C C8G C13G A26U G27U U38C, for which the self-cleavage came to 0.

Consider G2C A14C C18A C23U, for which the self-cleavage turned out to be 0.02.

With G2C A4U A41C C45A, the self-cleavage is 0.03.

On to G2C C13G A16G G21A G22U, for which the self-cleavage worked out at 0.09.

Consider G2C C3U G27C, for which the self-cleavage stood at 0.08.

On to G2C C3U G27A, for which the self-cleavage was 0.62.

G2C C10G G19A G35A A41G: the self-cleavage was found to be 0.01.

Consider G2C C10A U20C U34C G36U, for which the self-cleavage came out at 0.02.

As for G2C C13U C18G G21U U38C C45A C46G, the self-cleavage was 0.

Turning to G2C C23A G36C A41C, the self-cleavage came out at 0.26.

Consider G2C C10A G30C G33C, for which the self-cleavage amounted to 0.02.

As to G2C A4G U9A C15U C31U, the self-cleavage came to 0.06.

Regarding G2C A14C G22A, the self-cleavage was 0.04.

As for G2C C31G U34C C37A, the self-cleavage worked out at 0.1.

Take G2C C31A G36U C42G: the self-cleavage was 0.11.

Regarding G2C A4U A12U, the self-cleavage was found to be 0.08.

G2C C10A C18A U32A C45A C46G: the self-cleavage was 0.

For G2C C13G U20C, the self-cleavage amounted to 0.24.

For the variant G2C C10U G27U G29A U43A, the self-cleavage turned out to be 0.01.

As to G2C C18A A39C, the self-cleavage turned out to be 0.05.

For the variant G2C A6G G7C U32G A41G, the self-cleavage stood at 0.07.

With G2C A12U C18A G30A U34A G44C, the self-cleavage came to 0.02.

For G2C A6U G40A C45U, the self-cleavage amounted to 0.02.

For G2C A4G C13U A16U G22C, the self-cleavage turned out to be 0.02.

G2C C8U U34C G44A C45U: the self-cleavage was found to be 0.31.
